Assay results reported in publication doi:10.1101/2025.08.19.670962, “Structural basis for binding of RILPL1 to TMEM55B reveals a lysosomal platform for adaptor assembly through a conserved TBM motif” (bioRxiv, 2025).
Where a chain is given by its changes, count along the chain named. No constants are given. Whether binding was seen depends on the method and setting. For part of these data: Binding seen in cells or lysates may run through a third protein. Some results given as binding are weak or reduced against the parent protein; the word gives no strength. For part of these data: Sequences can lack the tags named with a protein.

Protein sequences, listed by entry. Tags and fused reporters are not part of them. Lines headed by an entry give the natural chain unless they say otherwise; changes in a name come on top. Chains listed by the source or under a name are the forms on record and can include a tag or linker.
UniProt Q01968: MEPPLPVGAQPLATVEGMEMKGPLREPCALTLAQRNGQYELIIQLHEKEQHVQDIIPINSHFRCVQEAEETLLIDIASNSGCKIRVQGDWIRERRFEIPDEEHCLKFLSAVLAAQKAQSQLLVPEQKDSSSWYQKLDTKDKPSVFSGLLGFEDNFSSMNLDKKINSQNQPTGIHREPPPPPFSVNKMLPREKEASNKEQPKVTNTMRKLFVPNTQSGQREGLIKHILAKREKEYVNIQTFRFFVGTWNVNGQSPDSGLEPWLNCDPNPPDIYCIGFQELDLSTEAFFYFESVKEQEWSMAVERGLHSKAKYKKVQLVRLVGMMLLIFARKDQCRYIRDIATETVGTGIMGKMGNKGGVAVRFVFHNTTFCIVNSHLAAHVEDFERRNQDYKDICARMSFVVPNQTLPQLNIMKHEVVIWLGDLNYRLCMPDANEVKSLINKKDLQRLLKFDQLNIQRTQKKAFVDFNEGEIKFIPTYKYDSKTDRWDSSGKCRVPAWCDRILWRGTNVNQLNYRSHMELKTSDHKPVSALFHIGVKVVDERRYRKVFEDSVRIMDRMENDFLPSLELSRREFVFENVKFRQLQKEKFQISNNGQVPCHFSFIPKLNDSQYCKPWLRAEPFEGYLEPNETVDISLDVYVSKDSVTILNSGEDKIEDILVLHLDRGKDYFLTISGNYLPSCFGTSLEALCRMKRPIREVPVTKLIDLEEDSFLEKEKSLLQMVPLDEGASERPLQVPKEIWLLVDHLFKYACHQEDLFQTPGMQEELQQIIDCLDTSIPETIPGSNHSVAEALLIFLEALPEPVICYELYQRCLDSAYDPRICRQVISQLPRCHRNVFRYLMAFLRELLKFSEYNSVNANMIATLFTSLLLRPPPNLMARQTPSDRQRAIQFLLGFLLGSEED
UniProt Q66K14: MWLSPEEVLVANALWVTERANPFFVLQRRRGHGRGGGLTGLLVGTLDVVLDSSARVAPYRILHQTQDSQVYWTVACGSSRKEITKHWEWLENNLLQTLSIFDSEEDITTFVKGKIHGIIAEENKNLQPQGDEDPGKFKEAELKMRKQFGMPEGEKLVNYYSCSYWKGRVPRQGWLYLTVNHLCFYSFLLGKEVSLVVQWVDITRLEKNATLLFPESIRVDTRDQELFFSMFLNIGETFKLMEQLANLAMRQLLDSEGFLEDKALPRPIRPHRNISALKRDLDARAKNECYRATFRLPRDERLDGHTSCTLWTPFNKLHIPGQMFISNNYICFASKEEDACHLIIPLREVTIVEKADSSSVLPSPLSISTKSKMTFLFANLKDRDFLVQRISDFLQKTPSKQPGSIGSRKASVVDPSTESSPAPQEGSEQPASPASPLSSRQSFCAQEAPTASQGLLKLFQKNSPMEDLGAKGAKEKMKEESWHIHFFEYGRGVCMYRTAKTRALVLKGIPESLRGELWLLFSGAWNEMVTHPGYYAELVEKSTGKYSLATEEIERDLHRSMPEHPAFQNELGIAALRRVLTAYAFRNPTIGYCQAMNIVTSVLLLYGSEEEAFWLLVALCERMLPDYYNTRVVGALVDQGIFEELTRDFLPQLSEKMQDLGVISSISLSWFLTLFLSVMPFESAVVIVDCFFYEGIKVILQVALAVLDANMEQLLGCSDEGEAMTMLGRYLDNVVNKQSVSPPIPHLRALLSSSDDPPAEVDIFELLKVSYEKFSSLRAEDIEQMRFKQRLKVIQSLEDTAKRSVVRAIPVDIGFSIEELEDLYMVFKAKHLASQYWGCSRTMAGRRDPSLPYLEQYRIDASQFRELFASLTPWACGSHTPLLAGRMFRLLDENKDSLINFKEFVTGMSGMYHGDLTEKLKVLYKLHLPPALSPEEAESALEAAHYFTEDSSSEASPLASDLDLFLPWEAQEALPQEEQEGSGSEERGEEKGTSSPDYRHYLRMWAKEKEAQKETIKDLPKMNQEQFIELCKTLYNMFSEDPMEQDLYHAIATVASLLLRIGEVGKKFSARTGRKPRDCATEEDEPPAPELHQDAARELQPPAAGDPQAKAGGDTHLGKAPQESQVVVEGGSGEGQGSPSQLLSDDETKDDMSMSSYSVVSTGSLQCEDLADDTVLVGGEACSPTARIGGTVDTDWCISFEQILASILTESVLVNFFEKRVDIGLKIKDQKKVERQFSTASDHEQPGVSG
TMEM55B (in HEK293 wild type cells, Figure 4) (Q86T03-2, form named): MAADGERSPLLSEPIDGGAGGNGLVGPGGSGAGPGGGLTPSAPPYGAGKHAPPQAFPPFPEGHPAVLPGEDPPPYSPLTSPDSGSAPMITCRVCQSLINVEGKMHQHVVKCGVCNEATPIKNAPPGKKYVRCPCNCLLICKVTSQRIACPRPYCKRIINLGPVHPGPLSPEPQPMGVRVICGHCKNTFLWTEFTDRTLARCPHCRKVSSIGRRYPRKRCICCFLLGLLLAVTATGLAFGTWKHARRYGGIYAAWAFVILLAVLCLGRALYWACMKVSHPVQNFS
TMEM55B (80-166), untagged, wild type (Q86T03-2, form named): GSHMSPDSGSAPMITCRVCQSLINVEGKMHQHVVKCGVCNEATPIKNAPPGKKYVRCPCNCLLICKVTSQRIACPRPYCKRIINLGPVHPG
TMEM55B (80-166) R151E (Q86T03-2, form named): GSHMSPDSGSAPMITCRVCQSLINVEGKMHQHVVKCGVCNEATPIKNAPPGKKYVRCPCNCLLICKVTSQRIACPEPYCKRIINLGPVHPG

Experiments:
[1] = molecular target: T1, RILPL1-GFP (UniProt Q5EBL4); experiment: co-IP; GFP-Trap immunoprecipitation of RILPL1-GFP from HEK293 TMEM55B/A double knock-out cells transfected with HA-Rab8A Q67L and FLAG-LRRK2 Y1699C; quantitative immunoblot
T1 sequence: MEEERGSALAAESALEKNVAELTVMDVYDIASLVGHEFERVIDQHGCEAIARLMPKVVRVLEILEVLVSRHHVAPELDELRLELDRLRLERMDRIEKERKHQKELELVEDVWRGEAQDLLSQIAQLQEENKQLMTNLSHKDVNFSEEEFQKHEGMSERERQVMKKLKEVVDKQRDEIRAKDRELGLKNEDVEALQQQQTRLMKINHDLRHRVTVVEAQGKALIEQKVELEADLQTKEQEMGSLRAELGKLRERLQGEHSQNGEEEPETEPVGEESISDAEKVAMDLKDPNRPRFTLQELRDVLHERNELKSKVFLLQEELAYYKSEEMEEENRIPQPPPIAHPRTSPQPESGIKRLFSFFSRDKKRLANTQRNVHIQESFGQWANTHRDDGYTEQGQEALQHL

[2] = molecular target: T2, RILPL1 E398K GFP (UniProt Q5EBL4); experiment: as above
T2 sequence: T1 sequence with E398K

[3] = molecular target: T3, RILPL1 G396L GFP (UniProt Q5EBL4); experiment: as above
T3 sequence: T1 sequence with G396L

[4] = molecular target: T4, His-OCRL 65-75; experiment: pull-down; 10μM His-tagged peptide or His-tagged OCRL PH domain as bait on Ni2+-agarose, 10μM untagged TMEM55B as prey; 20 mM Tris pH 8.0, 300 mM NaCl, 20mM imidazole, 10 mM β-mercaptoethanol; Coomassie; both purified
T4 sequence (peptide): GSVQEAEETLLID

[5] = molecular target: T5, His-RILPL1 391-403; experiment: as above
T5 sequence (peptide): GSGYTEQGQEALQHL

[6] = molecular target: GFP-OCRL (UniProt Q01968); experiment: co-IP; GFP immunoprecipitation (GFP-Trap) from transiently transfected HEK293 wild type cells; quantitative immunoblot
[7] = molecular target: T6, JIP4-GFP (UniProt O60271); experiment: as above
T6 sequence: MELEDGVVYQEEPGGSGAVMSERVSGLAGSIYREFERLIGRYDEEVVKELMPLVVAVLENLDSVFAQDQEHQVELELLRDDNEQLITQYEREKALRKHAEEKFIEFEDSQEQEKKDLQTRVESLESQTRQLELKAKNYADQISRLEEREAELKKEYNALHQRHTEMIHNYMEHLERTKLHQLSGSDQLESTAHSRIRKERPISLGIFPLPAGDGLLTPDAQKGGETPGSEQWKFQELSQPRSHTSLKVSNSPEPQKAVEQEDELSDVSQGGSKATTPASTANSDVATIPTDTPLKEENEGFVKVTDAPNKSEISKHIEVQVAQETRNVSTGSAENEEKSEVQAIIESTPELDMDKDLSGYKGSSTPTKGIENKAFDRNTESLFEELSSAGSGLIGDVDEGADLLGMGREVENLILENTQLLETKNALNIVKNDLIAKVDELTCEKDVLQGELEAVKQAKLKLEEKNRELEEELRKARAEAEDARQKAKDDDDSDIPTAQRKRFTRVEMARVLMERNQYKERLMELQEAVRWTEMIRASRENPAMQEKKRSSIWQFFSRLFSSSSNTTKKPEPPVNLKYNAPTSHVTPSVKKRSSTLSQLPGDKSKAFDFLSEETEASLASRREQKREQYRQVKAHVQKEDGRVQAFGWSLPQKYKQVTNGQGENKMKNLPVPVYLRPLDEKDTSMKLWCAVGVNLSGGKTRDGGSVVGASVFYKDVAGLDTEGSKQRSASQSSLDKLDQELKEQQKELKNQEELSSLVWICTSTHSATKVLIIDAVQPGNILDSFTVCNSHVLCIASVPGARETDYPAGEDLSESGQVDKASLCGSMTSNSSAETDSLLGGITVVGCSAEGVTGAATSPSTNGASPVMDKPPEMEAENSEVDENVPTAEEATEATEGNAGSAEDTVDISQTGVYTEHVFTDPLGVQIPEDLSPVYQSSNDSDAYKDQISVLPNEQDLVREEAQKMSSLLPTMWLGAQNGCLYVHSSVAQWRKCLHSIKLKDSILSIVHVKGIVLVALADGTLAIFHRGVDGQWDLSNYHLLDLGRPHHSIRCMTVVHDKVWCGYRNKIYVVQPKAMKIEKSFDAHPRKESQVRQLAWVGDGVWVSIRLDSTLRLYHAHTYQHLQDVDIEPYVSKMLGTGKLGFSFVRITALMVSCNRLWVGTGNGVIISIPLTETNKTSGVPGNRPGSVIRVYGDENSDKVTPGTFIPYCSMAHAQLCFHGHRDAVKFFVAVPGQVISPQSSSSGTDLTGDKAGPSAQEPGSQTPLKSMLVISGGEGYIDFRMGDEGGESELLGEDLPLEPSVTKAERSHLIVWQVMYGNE

[8] = molecular target: T7, JIP3-GFP (UniProt Q9UPT6); experiment: as above
T7 sequence: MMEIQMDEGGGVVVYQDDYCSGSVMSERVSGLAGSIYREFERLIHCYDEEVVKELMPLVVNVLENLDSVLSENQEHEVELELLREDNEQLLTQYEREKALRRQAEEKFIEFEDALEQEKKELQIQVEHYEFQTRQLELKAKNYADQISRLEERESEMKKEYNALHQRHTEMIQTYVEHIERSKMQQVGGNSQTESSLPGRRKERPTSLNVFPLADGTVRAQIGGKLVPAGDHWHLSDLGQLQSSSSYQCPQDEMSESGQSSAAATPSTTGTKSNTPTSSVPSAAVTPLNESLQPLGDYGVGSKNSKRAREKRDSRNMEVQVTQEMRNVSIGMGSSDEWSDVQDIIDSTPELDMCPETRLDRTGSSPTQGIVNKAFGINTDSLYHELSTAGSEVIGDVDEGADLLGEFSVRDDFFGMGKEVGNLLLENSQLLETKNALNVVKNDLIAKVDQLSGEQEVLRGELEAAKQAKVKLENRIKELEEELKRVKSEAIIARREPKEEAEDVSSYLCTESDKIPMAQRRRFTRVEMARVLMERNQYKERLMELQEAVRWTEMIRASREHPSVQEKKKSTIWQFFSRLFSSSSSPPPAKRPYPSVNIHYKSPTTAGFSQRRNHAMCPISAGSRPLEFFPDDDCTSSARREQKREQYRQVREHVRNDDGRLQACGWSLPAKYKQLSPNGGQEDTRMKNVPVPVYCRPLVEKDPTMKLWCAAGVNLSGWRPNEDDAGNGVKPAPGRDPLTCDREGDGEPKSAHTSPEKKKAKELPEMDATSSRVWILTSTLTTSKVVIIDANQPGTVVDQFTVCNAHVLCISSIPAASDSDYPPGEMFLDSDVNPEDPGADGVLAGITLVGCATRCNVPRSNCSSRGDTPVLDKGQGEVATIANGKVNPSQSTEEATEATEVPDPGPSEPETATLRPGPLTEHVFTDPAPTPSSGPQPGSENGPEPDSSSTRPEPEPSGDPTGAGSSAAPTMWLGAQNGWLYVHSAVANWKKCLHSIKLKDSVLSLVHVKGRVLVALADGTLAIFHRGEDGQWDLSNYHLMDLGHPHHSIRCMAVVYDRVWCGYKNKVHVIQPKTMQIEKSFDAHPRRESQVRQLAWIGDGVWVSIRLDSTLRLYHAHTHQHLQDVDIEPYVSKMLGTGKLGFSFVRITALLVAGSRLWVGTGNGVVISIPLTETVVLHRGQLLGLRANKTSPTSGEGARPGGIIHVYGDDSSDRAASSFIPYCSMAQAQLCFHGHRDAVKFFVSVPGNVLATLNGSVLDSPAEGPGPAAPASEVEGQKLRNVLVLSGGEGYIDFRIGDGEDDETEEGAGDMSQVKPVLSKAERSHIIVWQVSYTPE

[9] = molecular target: TBC1D9B (GFP-tagged) (UniProt Q66K14); experiment: as above

## Halo-TMEM55B (from UniProt Q86T03-2 1-284)
[1]
  binding: binds
[2]
  binding: no binding
[3]
  binding: no binding

## TMEM55B (80-166), untagged, wild type (from UniProt Q86T03-2 80-166) (domain or fragment)
[4]
  binding: no binding (tested: 10μM)

## TMEM55B (80-166) R151E (from UniProt Q86T03-2 80-166) (domain or fragment)
[5]
  binding: no binding (tested: 10μM)

## TMEM55B (in HEK293 wild type cells, Figure 4) (from UniProt Q86T03-2 1-284)
[6]
  binding: binds
[7]
  binding: binds
[8]
  binding: binds
[9]
  binding: binds
